The source of these data is the supplement of paper PMC4166925.

± gives the standard deviation of the averaged measurements. Over roughly 33,000 sequences, “E-score (dimensionless, -0.5 to 0.5)” has its median near -0.049; the highest 2% begin near 0.37. The list shows a part of the results.

The test deals with T1, PmTbr T-box DNA-binding domain (GST fusion).
T1 sequence: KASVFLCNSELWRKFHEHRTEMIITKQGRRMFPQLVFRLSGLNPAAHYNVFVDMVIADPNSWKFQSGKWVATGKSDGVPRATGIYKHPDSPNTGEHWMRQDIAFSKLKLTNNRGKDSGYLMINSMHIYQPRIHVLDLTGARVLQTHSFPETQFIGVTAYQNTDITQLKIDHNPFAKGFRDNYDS
Nature of the test: PBM E-score of 8-mer (E-score (dimensionless, -0.5 to 0.5)); Tbr is Tbrain of the sea star Patiria miniata (Pm) or the sea urchin Strongylocentrotus purpuratus (Sp); higher = stronger binding preference; most listed sequences are background and not binding sites. Particulars: the construct has about 5 more residues each side. In a few lines: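 Expression of GST-fused Tbr T-box DNA-binding domains, each holding the full T-box plus roughly five flanking residues, was carried out in BL21 E. coli at 20 °C, with purification by glutathione affinity chromatography. Universal Agilent arrays made double-stranded by primer extension were incubated with the protein at 200 nM in PBS (pH 7.5), then scanned and quantified. All ungapped 8-mers were scored from probe intensities, and each received an enrichment E-score from the Universal PBM Analysis Suite, averaged over duplicate arrays.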
Turning to TCGCCAGA, the “PBM E-score of 8-mer” value turned out to be 0.0621 ± 0.0031. Take CTACTCGA: the “PBM E-score of 8-mer” value was -0.0985 ± 0.018.

In the case of TCACCGAA, the “PBM E-score of 8-mer” value was 0.0638 ± 0.0097. With AATTAGCA the figure was 0.249 ± 0.04; with ACGTGATA, 0.266 ± 0.037. As to AAAAAAGA, the “PBM E-score of 8-mer” value is -0.153 ± 0.093. With TCCGATCA the figure was 0.026 ± 0.042; with GTCAGTGA, 0.122 ± 0.036; with ACGACGGC, -0.0644 ± 0.016. The value for CACTACGG was 0.11 ± 0.022; that for ACATATAT was -0.00236 ± 0.0046; that for ACTTTGCC was -0.00123 ± 0.012. AGTGACGG: the “PBM E-score of 8-mer” value stood at 0.24 ± 0.038. Turning to ATTGGACG, the “PBM E-score of 8-mer” value was -0.275 ± 0.013. Take GTATATAA: the “PBM E-score of 8-mer” value was -0.0836 ± 0.03. On to AGAGAAAA, for which the “PBM E-score of 8-mer” value is -0.129 ± 0.049. For CCCTTTGC, the “PBM E-score of 8-mer” value was -0.148 ± 0.0026. As to ATTTCGGC, the “PBM E-score of 8-mer” value amounted to 0.139 ± 0.012. As to CAGCTGCC, the “PBM E-score of 8-mer” value is 0.0085 ± 0.024. Consider AGTGTTTA, for which the “PBM E-score of 8-mer” value came to 0.258 ± 0.043.

AGCCAAGA: the “PBM E-score of 8-mer” value was -0.25 ± 0.044. As for ACAATCCA, the “PBM E-score of 8-mer” value was -0.0322 ± 0.0046. In the case of AACTTAGC, the “PBM E-score of 8-mer” value was determined as 0.122 ± 0.0076.

For AGATAAAG, the “PBM E-score of 8-mer” value was -0.138 ± 0.054. Consider ATGACTCG, for which the “PBM E-score of 8-mer” value was -0.055 ± 0.11. In the case of ACACGAGC, the “PBM E-score of 8-mer” value came to 0.0847 ± 0.0069. Consider ATTTAAAT, for which the “PBM E-score of 8-mer” value is 0.0609 ± 0.14. Consider GGATTGCC, for which the “PBM E-score of 8-mer” value was -0.0355 ± 0.078. As for CAAGCATG, the “PBM E-score of 8-mer” value was -0.0451 ± 0.032. AATCGGGC: the “PBM E-score of 8-mer” value is -0.178 ± 0.039. The value for CAATTCAA was 0.00842 ± 0.019; that for ACCTTAAT was 0.0473 ± 0.1. For CTAACGGC, the “PBM E-score of 8-mer” value was 0.128 ± 0.029. Consider CATTCGCG, for which the “PBM E-score of 8-mer” value turned out to be 0.353 ± 0.004. For CGACGGGC, the “PBM E-score of 8-mer” value is -0.0616 ± 0.0087. Consider AGTTGGCA, for which the “PBM E-score of 8-mer” value was 0.267 ± 0.018. For the sequence ACTTCACT, the “PBM E-score of 8-mer” value was 0.147 ± 0.0065. For the sequence AATAAGGA, the “PBM E-score of 8-mer” value was -0.198 ± 0.017. On to ATTTAAAG, for which the “PBM E-score of 8-mer” value is -0.164 ± 0.12. Turning to GTGATAGA, the “PBM E-score of 8-mer” value came out at 0.297 ± 0.042. Consider GCAATGAA, for which the “PBM E-score of 8-mer” value was -0.0272 ± 0.033. Take GCGGAAGC: the “PBM E-score of 8-mer” value turned out to be 0.0112 ± 0.014.

On to CTGGGACC, for which the “PBM E-score of 8-mer” value is -0.214 ± 0.053. As to CCGCGATC, the “PBM E-score of 8-mer” value was determined as 0.0852 ± 0.065. Consider CTGCTCAA, for which the “PBM E-score of 8-mer” value was -0.0839 ± 0.036. Consider AACCATAG, for which the “PBM E-score of 8-mer” value was -0.0343 ± 0.06. The value for GGCAAGCA was -0.14 ± 0.043. With ACTGTGAC the figure was 0.239 ± 0.026; with CATTCCAC, -0.091 ± 0.049. For GGCTTAGA, the “PBM E-score of 8-mer” value was -0.242 ± 0.021. With AACTCCAG the figure was -0.286 ± 0.01; with CTTAGTTA, -0.165 ± 0.021.

Consider ACAGTCGG, for which the “PBM E-score of 8-mer” value was 0.00435 ± 0.025. Consider GGATGACA, for which the “PBM E-score of 8-mer” value came to 0.0332 ± 0.031.

In the case of ATCCAAGG, the “PBM E-score of 8-mer” value amounted to 0.0236 ± 0.0032. TAACACGA: the “PBM E-score of 8-mer” value came out at 0.242 ± 0.0091.

Consider AGTCCTAA, for which the “PBM E-score of 8-mer” value is -0.169 ± 0.073. Turning to TGGACTAA, the “PBM E-score of 8-mer” value was -0.217 ± 0.0037. As to ACACACGT, the “PBM E-score of 8-mer” value is 0.305 ± 0.017. The value for AGCAAAAA was -0.0388 ± 0.032. For CTTCCGTA, the “PBM E-score of 8-mer” value was -0.178 ± 0.11. Consider ACGTAATC, for which the “PBM E-score of 8-mer” value is -0.169 ± 0.0087. Turning to ACTATCGG, the “PBM E-score of 8-mer” value was -0.166 ± 0.015. As to CAATGTCA, the “PBM E-score of 8-mer” value was 0.19 ± 0.024. With TCACGGCA, the “PBM E-score of 8-mer” value amounted to 0.155 ± 0.034.

As for CCGAGGCG, the “PBM E-score of 8-mer” value is 0.307 ± 0.0046. Take ACTCTGTG: the “PBM E-score of 8-mer” value was -0.0509 ± 0.051. For the sequence CCACATCA, the “PBM E-score of 8-mer” value was 0.199 ± 0.019. In the case of ATGGATTC, the “PBM E-score of 8-mer” value was -0.129 ± 0.024. As for AACCCCGG, the “PBM E-score of 8-mer” value is -0.132 ± 0.086.

Take ACCCCTGA: the “PBM E-score of 8-mer” value was -0.126 ± 0.0081. The value for CGGTGCCC was -0.215 ± 0.034; that for AATTGAGT was -0.0332 ± 0.059. Consider CTGTAACA, for which the “PBM E-score of 8-mer” value stood at 0.326 ± 0.0042. With AAAAAAGT the figure was -0.0899 ± 0.094. Turning to AAGGTCAT, the “PBM E-score of 8-mer” value was -0.255 ± 0.0088. For the sequence GAATGGCC, the “PBM E-score of 8-mer” value was 0.00925 ± 0.026.

CTCCGGTC: the “PBM E-score of 8-mer” value is -0.096 ± 0.025.

For CATCGAGC, the “PBM E-score of 8-mer” value was -0.143 ± 0.013. On to CAGTCGTC, for which the “PBM E-score of 8-mer” value was -0.0961 ± 0.059. Turning to CCTCCTGA, the “PBM E-score of 8-mer” value was -0.0506 ± 0.054. Turning to CTACTTAA, the “PBM E-score of 8-mer” value was 0.00387 ± 0.015. In the case of CATTCAAG, the “PBM E-score of 8-mer” value stood at 0.0462 ± 0.037.

For the sequence CCTCCGTA, the “PBM E-score of 8-mer” value was -0.112 ± 0.018. Take AGTCCTAG: the “PBM E-score of 8-mer” value is -0.0285 ± 0.042.

With GAGTATGC, the “PBM E-score of 8-mer” value was -0.212 ± 0.015. For GGCTCACA, the “PBM E-score of 8-mer” value was found to be 0.0846 ± 0.0034.

On to GACACGTA, for which the “PBM E-score of 8-mer” value came to 0.317 ± 0.029. With AAGGACCG the figure was -0.217 ± 0.026; with AGCGTCTC, -0.0521 ± 0.042. Consider CAGCGTAG, for which the “PBM E-score of 8-mer” value is -0.185 ± 0.029. Take CATGTCGG: the “PBM E-score of 8-mer” value is -0.0209 ± 0.11. With ACTTGACC the figure was -0.27 ± 0.06; with ACCGTGAC, 0.148 ± 0.073.
